# Experimental data reported in PMC4336329 (PLoS ONE, 2015).
# In all, about 310,000 compounds went through this assay and about 2,200 (0.71%) showed an effect of 50% or more. Effects have a minus sign here. The list shows a part of the results.
# Target: human ether-à-go-go-related gene (hERG) potassium channel (human, UniProt Q12809)
# Assay: primary screen, population patch clamp on CHO cells stably expressing hERG
# Chain of human ether-à-go-go-related gene (hERG) potassium channel (Q12809 whole entry, looked up): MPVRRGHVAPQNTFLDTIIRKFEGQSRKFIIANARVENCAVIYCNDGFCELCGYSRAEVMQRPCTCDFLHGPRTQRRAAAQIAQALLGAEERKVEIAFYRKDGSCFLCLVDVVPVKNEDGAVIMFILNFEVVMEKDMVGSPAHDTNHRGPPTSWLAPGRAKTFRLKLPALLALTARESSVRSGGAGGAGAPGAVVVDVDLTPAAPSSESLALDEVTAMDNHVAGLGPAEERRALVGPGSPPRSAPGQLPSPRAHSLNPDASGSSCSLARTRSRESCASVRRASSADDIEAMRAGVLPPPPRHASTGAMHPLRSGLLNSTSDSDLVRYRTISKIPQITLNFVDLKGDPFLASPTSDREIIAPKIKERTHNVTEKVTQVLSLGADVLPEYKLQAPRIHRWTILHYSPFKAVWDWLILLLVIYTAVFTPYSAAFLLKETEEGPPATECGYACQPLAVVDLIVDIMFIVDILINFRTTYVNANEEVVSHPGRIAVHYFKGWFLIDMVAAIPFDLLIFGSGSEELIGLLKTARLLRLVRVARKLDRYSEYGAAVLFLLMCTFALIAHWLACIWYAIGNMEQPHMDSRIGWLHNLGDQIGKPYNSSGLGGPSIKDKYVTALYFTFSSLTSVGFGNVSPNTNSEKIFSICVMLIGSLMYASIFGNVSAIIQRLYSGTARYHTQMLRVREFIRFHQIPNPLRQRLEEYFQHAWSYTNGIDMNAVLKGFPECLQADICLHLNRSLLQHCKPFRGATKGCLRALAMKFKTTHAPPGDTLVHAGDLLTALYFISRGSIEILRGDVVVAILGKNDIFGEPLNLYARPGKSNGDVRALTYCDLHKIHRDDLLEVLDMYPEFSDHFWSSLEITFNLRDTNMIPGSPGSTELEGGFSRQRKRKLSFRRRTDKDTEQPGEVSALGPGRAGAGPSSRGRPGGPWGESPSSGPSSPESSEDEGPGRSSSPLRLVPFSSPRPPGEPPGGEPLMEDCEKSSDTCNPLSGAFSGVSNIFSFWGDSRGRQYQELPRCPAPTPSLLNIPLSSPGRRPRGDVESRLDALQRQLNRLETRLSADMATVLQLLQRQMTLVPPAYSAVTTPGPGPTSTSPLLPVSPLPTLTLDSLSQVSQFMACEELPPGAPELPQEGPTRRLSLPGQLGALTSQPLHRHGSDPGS
row,Structure (SMILES),"hERG current change (%, negative = inhibition) at 1uM [%]"
1,O=c1oc(-c2cccs2)nc2sc3c(c12)CCC3,10.9
2,COCCOC(=O)C1=C(C)N(c2ccccc2)C(=S)NC1c1ccccc1C(F)(F)F (centres unmarked),11.4
3,CC(C)Oc1ccc(CC2CCC(=O)N(C)C2=O)cc1 (centres unmarked),-4.3
4,O=C(Nc1cccc(Cl)c1)N(CCN1CCOCC1)Cc1cccc(Cl)c1,7.58
5,c1ccc2sc(NC3=NCN(Cc4ccc5c(c4)OCO5)CN3)nc2c1,8.89
6,COC(=O)C1=C(c2ccc(F)cc2OCc2ccccc2)C[C@@H]2CC[C@H]1N2C(=O)NCCO,11
7,COc1cccc(CNC(=O)CCNS(=O)(=O)c2cccs2)c1,1.5
8,CCSc1nnc(NC(=O)COc2ccc(Cl)cc2)s1,17.2
9,CCn1c(SCC(=O)NC2CCCC2)nnc1-c1ccoc1C,16.3
10,COc1ccc(CN2CCN(C)CC2)cc1OCc1ccccc1,2.05
11,O=C(O)c1ccc(/C=N/NC(=O)c2ccc3c(c2)OCCO3)cc1,12.7
12,Cc1nc(N(C)C)c2sc(=S)n(C)c2n1,7.68
13,Oc1ccc(Cl)cc1C=Nc1ccc(Br)cc1,16.5
14,CSc1ccc(S(=O)(=O)NCC(=O)OC(C)C(=O)NCc2ccccc2)cc1[N+](=O)[O-] (centres unmarked),10.1
15,O=C(Nc1cccnc1)c1cc(-c2ccc(Cl)cc2)on1,13.2
16,Nc1nc(N)nc(COc2ccccc2)n1,10.1
17,CCN(CC)S(=O)(=O)c1ccc(OC)c(NC(=S)Nc2cccc(C)c2)c1,-0.259
18,C=CCN1C(=O)/C(=C/C=C2/N(CC)c3ccc(S(=O)(=O)N(C)C)cc3N2CC)SC1=S,9.33
19,Cc1ccc(S(=O)(=O)N(C)CC(=O)OCc2nnc(-c3ccccc3)o2)cc1,-0.329
20,Cc1ccc(NC(=O)COC(=O)CN2CCCCCC2=O)cc1C,4.71
21,O=C(CCc1ccccc1)NN1C(=O)C2C3C=CC(O3)C2C1=O (centres unmarked),16.2
22,CC(=O)Nc1ccc(/C=N/NC(=O)CNC(=O)c2ccccc2)cc1,13.6
23,CC12CN3CCN(CC(C3)C1(O)CN1CCCCC1)C2 (centres unmarked),4.39

row,Structure (SMILES),"hERG current change (%, negative = inhibition) at 1uM [%]"
1,COc1ccc(/C=N/OC(=O)Nc2ccccc2)cc1[N+](=O)[O-],6.58
2,Cc1ccc(NC(=O)c2cc(-c3ccccc3O)n[nH]2)cc1Cl,2.37
3,CCc1cccc(CC)c1NC(=O)Cn1c(-c2ccc(F)cc2)noc1=O,2.26
4,CN(C=C1C(=O)CC(C)(C)CC1=O)CCN1CCNCC1,2.4
5,COc1ccc(-c2nc3n(c(=O)c2C#N)CCCS3)cc1,8.67
6,O=C(c1cccn(Cc2cccc(Cl)c2)c1=O)N1CCOCC1,-7.56
7,CC(=O)Nc1ccc(CN2CCCC(CO)(Cc3cccc(Cl)c3)C2)cc1 (centres unmarked),-10.1
8,COc1ccc(C(=O)N(CCc2ccccc2)Cc2cccs2)c(OC)c1,8.84
9,O=C(CSC1CN(C(c2ccccc2)c2ccccc2)C1)N/N=C/c1ccccc1,10
10,O=C(C1CCCCN1S(=O)(=O)c1ccccc1)N1CCCCC1 (centres unmarked),-1.18
11,Cc1cc([N+](=O)[O-])cc2c1NC(=O)C2(O)N1CCCCCC1 (centres unmarked),10.6
12,CC(=O)Nc1ccc(/C=C/c2ccc3cccc([N+](=O)[O-])c3n2)cc1,-3.41
13,CC(=O)Nc1ccc(S(=O)(=O)N2CCCc3ccccc32)cc1,-4.77
14,Cn1nnc2cc(NC(=O)Nc3cccc(C(F)(F)F)c3)ccc21,9.81
15,Cc1ccc2c(c1)cc1c(=O)n(CC(=O)NCc3ccccn3)nc(C)n12,-3.89
16,Cc1ccc(S(=O)(=O)N2CCC(C(=O)OCC(=O)N3CCCCC3C)CC2)cc1C (centres unmarked),11
17,CCC(C)c1ccc(N(CC(=O)NC(C)(C)C)C(=O)CNC(=O)c2cccs2)cc1 (centres unmarked),14.6
18,COc1cc(Cl)ccc1OCc1cc(C(=O)N[C@H]2CCCCNC2=O)no1,10.7
19,CC(C)N(Cc1ccccc1)S(=O)(=O)c1ccc2c(c1)NC(=O)CO2,10.4
20,O=C(c1cn(-c2ccccc2)nc1-c1ccccc1)n1nnc2ccccc21,14.5
21,CC(/C=C1\SC(=S)N(NS(=O)(=O)c2ccccc2)C1=O)=C\c1ccccc1,4.21
22,COc1ccccc1C(CNC(=O)C1CC(=O)N(Cc2ccccc2)C1)N1CCCC1 (centres unmarked),6.96
23,S=c1[nH]nc(-c2cccnc2)n1/N=C/C(Cl)=C\c1ccccc1,6.7

row,Structure (SMILES),"hERG current change (%, negative = inhibition) at 1uM [%]"
1,CCN(CC)c1ccc(S(=O)(=O)N2CCOCC2)cc1NC(=O)COC(=O)c1ccco1,-5.71
2,COC(=O)C1CCN(C(=O)COC(=O)c2cc([N+](=O)[O-])ccc2N2CCOCC2)CC1,2.09
3,O=S(=O)(c1ccc(F)cc1)N1CCN(c2ccc(F)cc2)CC1,6.83
4,CC(C)CNC(=O)c1ccccc1NC(=O)CN(c1ccc2c(c1)OCCO2)S(C)(=O)=O,11.9
5,Cc1c(O)c(=O)ccn1Cc1ccccc1,15.1
6,CN(C)/C=C(\C#N)C(N)=C(C#N)C#N,12.2
7,O=C(NCc1ccco1)C1CCCN1C(=O)Nc1ccccc1[N+](=O)[O-] (centres unmarked),13.4
8,Cc1cc(C)c(C#N)c(OCC(=O)Nc2ccccc2)n1,14.5
9,Cc1ccc(C)c(C(=O)CSc2nc(C)cc(=O)[nH]2)c1,16.1
10,Cc1cc(C)n2cc(CSc3nnnn3C)nc2n1,4.86
11,CCOC(=O)N1CCC(NS(=O)(=O)c2cc(C(=O)OC)n(C)c2)CC1,11.6
12,COc1ccc(NC(=O)c2sc(-c3ccccc3)nc2C)c(OC)c1,11.1
13,Brc1ccccc1OCCOc1cccc2cccnc12,13.1
14,COc1ccc(C(C)=O)cc1CC(=O)Nc1ccc2c(c1)CCC2,9.4
15,CCCSc1ccc([C@@H]2[C@H]3C(=O)N(CC)C(=O)[C@H]3[C@]3(C(=O)OC)CCCN23)cc1OC.O=C(O)C(F)(F)F,1.95
16,Cc1nc(CC(=O)N2CCN(S(=O)(=O)c3ccccc3C#N)CC2)cs1,13.3
17,COc1ccc2[nH]c(=O)c(CN(C)C(=O)c3ccncc3)cc2c1,2.86
18,Cc1c(OCC(=O)NCCN2CCOCC2)ccc2c1oc(=O)c1ccccc12,-11
19,CCCCOC(=O)c1ccc(NC(=O)COC(=O)CSc2nc(C)cc(C)n2)cc1,7.95
20,COc1ccc2[nH]c(=O)c(CN(Cc3ccccc3OC)Cc3nnnn3CC3CCCO3)cc2c1 (centres unmarked),7.78
21,CCc1ccc(OCCCC(=O)Nc2cccc(C(=O)O)c2)cc1,10
22,CCCOc1ccc(-c2nnn(CC(=O)N3CCCCC3)n2)cc1,13.5
23,CCOC(=O)[C@H]1[C@H]2COc3ccccc3[C@@H]2N2C(=O)c3ccc(C)cc3NC(=O)[C@@]12C,12.3

row,Structure (SMILES),"hERG current change (%, negative = inhibition) at 1uM [%]"
1,CC(=O)Nc1ccc(NC(=O)CCCSc2nc3ccccc3s2)cc1,0.605
2,COc1cccc(/C=N/NC(=O)C[n+]2ccccc2)c1OC.[Cl-],2.16
3,O=C(CCl)c1ccc2[nH]c(=O)oc2c1,12.1
4,Cn1c(=O)c2c(SCC(=O)N3CCOCC3)nc(C3CC3)nc2n(C)c1=O,4.44
5,CC(=O)NC1=NN(C(C)=O)C2(S1)C(=O)N(CC(C)C)c1ccc(C)cc12 (centres unmarked),11.6
6,O=C(c1ccc2c(=O)n3c(nc2c1)CCCCC3)N1CCN(c2ccc([N+](=O)[O-])cc2)CC1,-31.4
7,Cc1ccc(NC(=O)CN2CCCC2)c2c1CC(C)(C)O2,19.6
8,Cc1sc(NC(=O)c2ccco2)c(CN2CCCCC2)c1C,-9.1
9,CC(CC(=O)Nc1cccnc1)c1ccccc1 (centres unmarked),25.3
10,Cc1ccsc1C(=O)OCC(=O)N1CC(=O)Nc2ccccc21,11
11,CCN(CC(=O)Nc1c(F)cccc1F)C(=O)Cc1c(C)nc2ccccc2c1C,-9.21
12,O=C(NCCCCc1ccccc1)c1ccc(Br)cc1,12.9
13,Cc1ccccc1NS(=O)(=O)c1cc(C(=O)Nc2cccc(N(C)S(C)(=O)=O)c2)ccc1C,11.4
14,Cc1ccc(-c2nc(NC(=O)CSc3ccc4ccccc4n3)ns2)cc1,2.8
15,CC(C)(C)N1C(=O)c2ccc(C(=O)Nc3nccs3)cc2C1=O,3.2
16,S=C1NNC2(CC3CC2C2CCCC32)NN1 (centres unmarked),-1.06
17,CC(=O)c1ccc(NC(=S)NC(NC(=O)c2ccco2)C(Cl)(Cl)Cl)cc1 (centres unmarked),-5.72
18,COc1ccccc1CCC(=O)OCC(=O)Nc1cccc(S(=O)(=O)N2CCCCC2)c1,7.57
19,O=C(Nc1sc2c(c1C(=O)O)CCCC2)c1ccc(F)cc1,13.3
20,O=C(c1ccc([N+](=O)[O-])o1)N1CCOCC1,9.96
